Results taken from the supplement of paper PMC4967469.

Assays:
Assay in all cases: Viability of human cancer cell lines after 72 h of drug (GDSC screen)
SB-505124 = compound: Cc1cccc(-c2[nH]c(C(C)(C)C)nc2-c2ccc3c(c2)OCO3)n1 [SB-505124]; settings: top dose 10 µM; top dose inferred
Description: (§1)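 Human cancer cell lines in 384-well plates, medium with 10% serum, drug for 72 h over a 256-fold dose range (nine 2-fold or five 4-fold steps up to the top dose). Adherent lines were fixed and stained with the nucleic acid dye Syto60, suspension lines read with resazurin; signal relative to control wells, capped at 0 and 100%. One two-parameter sigmoid per drug and line, fitted in a mixed model over all curves with the slope shared within a line.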

Tretinoin = compound: CC1=C(/C=C/C(C)=C/C=C/C(C)=C/C(=O)O)C(C)(C)CCC1 [Tretinoin]; settings: top dose 10 µM; top dose inferred
Description: as §1

WH-4-023 = compound: COc1ccc(N(C(=O)Oc2c(C)cccc2C)c2ccnc(Nc3ccc(N4CCN(C)CC4)cc3)n2)c(OC)c1 [WH-4-023]; settings: top dose 5.12 µM; top dose inferred
Description: as §1

PI-103 = compound: Oc1cccc(-c2nc(N3CCOCC3)c3oc4ncccc4c3n2)c1 [PI-103]; settings: top dose 10.24 µM
Description: as §1

UNC0638 = compound: COc1cc2c(NC3CCN(C(C)C)CC3)nc(C3CCCCC3)nc2cc1OCCCN1CCCC1 [UNC0638]
Description: as §1

BX-795 = compound: O=C(NCCCNc1nc(Nc2cccc(NC(=O)N3CCCC3)c2)ncc1I)c1cccs1 [BX-795]; settings: top dose 5 µM; top dose inferred
Description: as §1

GSK690693 = compound: CCn1c(-c2nonc2N)nc2c(C#CC(C)(C)O)ncc(OC[C@H]3CCCNC3)c21 [GSK690693]; settings: top dose 10.24 µM; top dose inferred
Description: as §1

[1] = top dose 20 µM, screen: GDSC drug entry 1236, top dose inferred
[2] = top dose 40 µM, screen: GDSC drug entry 245

| Cell Line | AUC (SB-505124) | IC50 (SB-505124) | AUC (Tretinoin) | IC50 (Tretinoin) | AUC (WH-4-023) | IC50 (WH-4-023) | AUC (PI-103) | IC50 (PI-103) | AUC (UNC0638; [1]) | IC50 (UNC0638; [1]) | AUC (UNC0638; [2]) | IC50 (UNC0638; [2]) | AUC (BX-795) | IC50 (BX-795) | AUC (GSK690693) | IC50 (GSK690693) |
| --- | --- | --- | --- | --- | --- | --- | --- | --- | --- | --- | --- | --- | --- | --- | --- | --- |
| NU-DUL-1 (B-cell lymphoma, suspension) | 0.992 | > 10 µM | 0.877 | 6.76 µM | 0.544 | 0.411 µM | 0.041 | < 0.04 µM | 0.848 | 10.7 µM | 0.551 | 3.34 µM | 0.79 | 1.76 µM | 0.105 | 0.0505 µM |
| OCI-AML2 (acute myeloid leukaemia, suspension) | 0.994 | > 10 µM | 0.933 | 9.51 µM | 0.995 | > 5.12 µM | 0.775 | 3.07 µM | 0.804 | 7.15 µM | 0.742 | 9.85 µM | 0.721 | 1.09 µM | 0.994 | > 10.2 µM |
| OCI-AML3 (acute myeloid leukaemia, suspension) | 0.99 | > 10 µM | 0.776 | 3.43 µM | 0.99 | > 5.12 µM | 0.264 | 0.153 µM | 0.739 | 5.32 µM | 0.699 | 8.25 µM | 0.939 | > 5 µM | 0.94 | > 10.2 µM |
| OCI-AML5 (acute myeloid leukaemia, suspension) | 0.986 | > 10 µM | 0.298 | 0.179 µM | 0.987 | > 5.12 µM | 0.183 | 0.0806 µM | 0.866 | 15.4 µM | 0.596 | 4.48 µM | 0.822 | 2.59 µM | 0.875 | 8.57 µM |
| OCI-LY-19 (B-cell lymphoma, suspension) | 0.962 | > 10 µM | 0.964 | > 10 µM | 0.969 | > 5.12 µM | 0.102 | < 0.04 µM | 0.874 | 16.9 µM | 0.609 | 4.85 µM | 0.861 | 3.71 µM | 0.705 | 2.3 µM |
| OCI-M1 (acute myeloid leukaemia, suspension) | 0.993 | > 10 µM | 0.966 | > 10 µM | 0.994 | > 5.12 µM | 0.111 | 0.0593 µM | 0.995 | > 20 µM | 0.622 | 4.96 µM | 0.769 | 1.47 µM | 0.788 | 3.38 µM |
| OCUB-M (breast, adherent) | 0.983 | > 10 µM | 0.946 | > 10 µM | 0.941 | > 5.12 µM | 0.401 | 0.357 µM | 0.832 | 10.5 µM | 0.773 | 13.5 µM | 0.919 | > 5 µM | 0.198 | 0.096 µM |
| OMC-1 (cervix, adherent) | 0.98 | > 10 µM | 0.986 | > 10 µM | 0.986 | > 5.12 µM | 0.596 | 1.19 µM | 0.986 | > 20 µM | 0.864 | 37.6 µM | 0.956 | > 5 µM | 0.921 | > 10.2 µM |
| ONS-76 (medulloblastoma, adherent) | 0.971 | > 10 µM | 0.982 | > 10 µM | 0.863 | 5.02 µM | 0.457 | 0.483 µM | 0.814 | 11.9 µM | 0.712 | 10.5 µM | 0.84 | 3.83 µM | 0.881 | > 10.2 µM |
| OPM-2 (myeloma, suspension) | 0.992 | > 10 µM | 0.984 | > 10 µM | 0.905 | 4.63 µM | 0.447 | 0.473 µM | 0.99 | > 20 µM | 0.628 | 5.23 µM | 0.913 | 4.92 µM | 0.987 | > 10.2 µM |
| OS-RC-2 (kidney, adherent) | 0.945 | > 10 µM | 0.939 | > 10 µM | 0.414 | 0.167 µM | 0.887 | > 10.2 µM | 0.822 | 19.4 µM | 0.767 | 21.9 µM | 0.94 | > 5 µM | 0.846 | > 10.2 µM |
| OVCAR-4 (ovary, adherent) | 0.95 | > 10 µM | 0.923 | > 10 µM | 0.849 | > 5.12 µM | 0.66 | 2.22 µM | 0.8 | 15.9 µM | 0.753 | 19.7 µM | 0.873 | > 5 µM | 0.971 | > 10.2 µM |
| P30-OHK (lymphoblastic leukaemia, suspension) | 0.943 | > 10 µM | 0.985 | > 10 µM | 0.96 | > 5.12 µM | 0.113 | 0.0504 µM | 0.624 | 2.58 µM | 0.444 | 1.81 µM | 0.666 | 0.83 µM | 0.503 | 0.653 µM |
| P31-FUJ (acute myeloid leukaemia, suspension) | 0.996 | > 10 µM | 0.995 | > 10 µM | 0.994 | > 5.12 µM | 0.899 | 7.46 µM | 0.86 | 10.7 µM | 0.798 | 14.1 µM | 0.966 | > 5 µM | 0.995 | > 10.2 µM |
| P32-ISH (Burkitt lymphoma, suspension) | 0.982 | > 10 µM | 0.977 | > 10 µM | 0.904 | 3.77 µM | 0.099 | 0.0558 µM | 0.815 | 7.73 µM | 0.639 | 5.46 µM | 0.749 | 1.29 µM | 0.774 | 3.06 µM |
| PSN1 (pancreas, adherent) | 0.991 | > 10 µM | 0.96 | > 10 µM | 0.851 | 3.01 µM | 0.527 | 0.748 µM | 0.811 | 8.6 µM | 0.606 | 4.64 µM | 0.846 | 2.82 µM | 0.981 | > 10.2 µM |
| QIMR-WIL (acute myeloid leukaemia, suspension) | 0.975 | > 10 µM | 0.956 | > 10 µM | 0.907 | > 5.12 µM | 0.136 | 0.0484 µM | 0.795 | 8.97 µM | 0.715 | 9.9 µM | 0.877 | 4.77 µM | 0.799 | 4.76 µM |

Lines with a small IC50 respond at low doses; a fit beyond the top or the lowest dose is shown as a bound at that dose. For AUC the same curve is integrated over the 256-fold range of doses and scaled to a fraction; values near 1 show little effect. For some assays here: An inferred top dose is not printed in the source and was worked back from the curve model. For some assays here: Drugs with an entry number were screened twice under separate entries, and the two screens often disagree.
